Data: the supplement of paper PMC8728848
This is one part of the list.

How the values were obtained:
Test in all cases: glycan array binding signal (z-score within array); higher = stronger binding
Conditions in all cases: glycan notation: IUPAC condensed, linker removed
[1] = biological target: Kdn(a2-3)Gal(b1-4)[Fuc(a1-3)]GlcNAc
Method in brief: (§1)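 From the Consortium for Functional Glycomics database, 3228 arrays were curated, keeping only those whose protein sequence was available. Binding is given as a within-array Z-score averaged across arrays sharing a protein sequence and across linkers. Negative Z-scores can be read as non-binding.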

[2] = biological target: Kdn(a2-6)Gal(b1-4)GlcNAc
Method in brief: as §1

[3] = biological target: Man(a1-2)Man(a1-2)Man(a1-3)Man
Method in brief: as §1

[4] = biological target: Man(a1-2)Man(a1-2)Man(a1-6)[Man(a1-3)]Man
Method in brief: as §1

[5] = biological target: Man(a1-2)Man(a1-3)Man
Method in brief: as §1

[6] = biological target: Man(a1-2)Man(a1-3)[Man(a1-2)Man(a1-6)]Man
Method in brief: as §1

[7] = biological target: Man(a1-2)Man(a1-3)[Man(a1-2)Man(a1-6)]Man(a1-6)[Man(a1-2)Man(a1-2)Man(a1-3)]Man
Method in brief: as §1

[8] = biological target: Man(a1-2)Man(a1-3)[Man(a1-2)Man(a1-6)]Man(a1-6)[Man(a1-2)Man(a1-2)Man(a1-3)]Man(b1-4)GlcNAc(b1-4)GlcNAc
Method in brief: as §1

[9] = biological target: Man(a1-2)Man(a1-3)[Man(a1-6)]Man(a1-6)[Man(a1-2)Man(a1-3)]Man(b1-4)GlcNAc(b1-4)GlcNAc
Method in brief: as §1

[10] = biological target: Man(a1-2)Man(a1-6)[Man(a1-3)]Man(a1-6)[Man(a1-2)Man(a1-2)Man(a1-3)]Man
Method in brief: as §1

[11] = biological target: Man(a1-2)Man(a1-6)[Man(a1-3)]Man(a1-6)[Man(a1-2)Man(a1-2)Man(a1-3)]Man(b1-4)GlcNAc(b1-4)GlcNAc
Method in brief: as §1

[12] = biological target: Man(a1-3)[Man(a1-6)]Man
Method in brief: as §1

[13] = biological target: Man(a1-3)[Man(a1-6)]Man(a1-6)[Man(a1-2)Man(a1-3)]Man(b1-4)GlcNAc(b1-4)GlcNAc
Method in brief: as §1

[14] = biological target: Man(a1-3)[Man(a1-6)]Man(a1-6)[Man(a1-3)]Man
Method in brief: as §1

[15] = biological target: Man(a1-3)[Man(a1-6)]Man(a1-6)[Man(a1-3)]Man(b1-4)GlcNAc(b1-4)GlcNAc
Method in brief: as §1

[16] = biological target: Man(a1-3)[Man(a1-6)]Man(b1-4)GlcNAc(b1-4)GlcNAc
Method in brief: as §1

[17] = biological target: Man(a1-6)Man
Method in brief: as §1

[18] = biological target: Man(b1-4)GlcNAc
Method in brief: as §1

[19] = biological target: Neu5Ac(a2-3)Gal
Method in brief: as §1

[20] = biological target: Neu5Ac(a2-3)Gal(b1-3)GalNAc
Method in brief: as §1

[21] = biological target: Neu5Ac(a2-3)Gal(b1-3)GalNAc(b1-3)Gal(a1-4)Gal(b1-4)Glc
Method in brief: as §1

[22] = biological target: Neu5Ac(a2-3)Gal(b1-3)GalNAc(b1-4)[Neu5Ac(a2-3)]Gal(b1-4)Glc
Method in brief: as §1

[23] = biological target: Neu5Ac(a2-3)Gal(b1-3)GalNAc6S
Method in brief: as §1

[24] = biological target: Neu5Ac(a2-3)Gal(b1-3)GlcNAc
Method in brief: as §1

[25] = biological target: Neu5Ac(a2-3)Gal(b1-3)GlcNAc(b1-2)Man(a1-3)[Neu5Ac(a2-3)Gal(b1-3)GlcNAc(b1-2)Man(a1-6)]Man(b1-4)GlcNAc(b1-4)GlcNAc
Method in brief: as §1

[26] = biological target: Neu5Ac(a2-3)Gal(b1-3)GlcNAc(b1-3)Gal(b1-3)GlcNAc
Method in brief: as §1

[27] = biological target: Neu5Ac(a2-3)Gal(b1-3)GlcNAc(b1-3)Gal(b1-4)GlcNAc
Method in brief: as §1

[28] = biological target: Neu5Ac(a2-3)Gal(b1-3)GlcNAc(b1-3)GalNAc
Method in brief: as §1

[29] = biological target: Neu5Ac(a2-3)Gal(b1-3)GlcNAc6S
Method in brief: as §1

[30] = biological target: Neu5Ac(a2-3)Gal(b1-3)[Fuc(a1-4)]GlcNAc
Method in brief: as §1

[31] = biological target: Neu5Ac(a2-3)Gal(b1-3)[Fuc(a1-4)]GlcNAc(b1-3)Gal(b1-3)[Fuc(a1-4)]GlcNAc
Method in brief: as §1

[32] = biological target: Neu5Ac(a2-3)Gal(b1-3)[Fuc(a1-4)]GlcNAc(b1-3)Gal(b1-4)[Fuc(a1-3)]GlcNAc
Method in brief: as §1

[33] = biological target: Neu5Ac(a2-3)Gal(b1-3)[Neu5Ac(a2-3)Gal(b1-4)]GlcNAc
Method in brief: as §1

[34] = biological target: Neu5Ac(a2-3)Gal(b1-3)[Neu5Ac(a2-6)]GalNAc
Method in brief: as §1

[35] = biological target: Neu5Ac(a2-3)Gal(b1-4)Glc
Method in brief: as §1

B1: SLP (Clostridium difficile), Q183M8 (protein)
chain: MATTGTQGYTVVKNDWKKAVKQLQDGLKDNSIGKITVSFNDGVVGEVAPKSANKKADRDAAAEKLYNLVNTQLDKLGDGDYVDFSVDYNLENKIITNQADAEAIVTKLNSLNEKTLIDIATKDTFGMVSKTQDSEGKNVAATKALKVKDVATFGLKSGGSEDTGYVVEMKAGAVEDKYGKVGDSTAGIAINLPSTGLEYAGKGTTIDFNKTLKVDVTGGSTPSAVAVSGFVTKDDTDLAKSGTINVRVINAKEESIDIDASSYTSAENLAKRYVFDPDEISEAYKAIVALQNDGIESNLVQLVNGKYQVIFYPEGKRLETKSLEHHHHHH
In the case of B1, the “glycan array binding signal (z-score)” value [1] is reported as -0.144, the “glycan array binding signal (z-score)” value [2] is reported as -0.176 and the “glycan array binding signal (z-score)” value [3] is reported as 2.27. For the same binder, the “glycan array binding signal (z-score)” value [4] was -0.17, the “glycan array binding signal (z-score)” value [5] was -0.117 and the “glycan array binding signal (z-score)” value [6] was -0.192. The “glycan array binding signal (z-score)” value [7] was -0.18, the “glycan array binding signal (z-score)” value [8] was -0.167 and the “glycan array binding signal (z-score)” value [9] was -0.154. For the same binder, the “glycan array binding signal (z-score)” value [10] was -0.161, the “glycan array binding signal (z-score)” value [11] was -0.129 and the “glycan array binding signal (z-score)” value [12] was -0.17. For the same binder, the “glycan array binding signal (z-score)” value [13] was -0.142, the “glycan array binding signal (z-score)” value [14] was -0.206 and the “glycan array binding signal (z-score)” value [15] was -0.166. For the same binder, the “glycan array binding signal (z-score)” value [16] was -0.173, the “glycan array binding signal (z-score)” value [17] was -0.213 and the “glycan array binding signal (z-score)” value [18] was -0.179. The “glycan array binding signal (z-score)” value [19] was -0.169, the “glycan array binding signal (z-score)” value [20] was -0.163 and the “glycan array binding signal (z-score)” value [21] was -0.149. The “glycan array binding signal (z-score)” value [22] was -0.189, the “glycan array binding signal (z-score)” value [23] was -0.139 and the “glycan array binding signal (z-score)” value [24] was -0.182. For the same binder, the “glycan array binding signal (z-score)” value [25] was -0.149, the “glycan array binding signal (z-score)” value [26] was -0.182 and the “glycan array binding signal (z-score)” value [27] was -0.195. For the same binder, the “glycan array binding signal (z-score)” value [28] was -0.154, the “glycan array binding signal (z-score)” value [29] was -0.167 and the “glycan array binding signal (z-score)” value [30] was -0.191. For the same binder, the “glycan array binding signal (z-score)” value [31] was -0.094, the “glycan array binding signal (z-score)” value [32] was -0.057 and the “glycan array binding signal (z-score)” value [33] was -0.184. The “glycan array binding signal (z-score)” value [34] was 0.043 and the “glycan array binding signal (z-score)” value [35] was -0.164.
